Out of some 120,000 compounds screened, about 5,300 (4.4%) were called active. Inconclusive results, whose numbers are uncertain, are shown with a selection of clear calls. Calls come from the whole dose curve; as a rule, active = well fitted inhibition curve with a large enough effect; inconclusive = small, poorly fitted or top-dose-only effect; inactive = no such curve, though single readings can be large or run the other way. Where the call is inconclusive, the potency comes from a doubtful curve fit.
Test: qHTS Primary assay for Inhibitors of Plasmodium falciparum Dd2 growth in vitro; note: nearly all actives have a fitted effect of over 65% in size
Settings: P. falciparum Dd2 growth, SYBR Green, 72 h; series mostly up to 28.9 µM
Method in brief: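 Infected erythrocytes (Dd2, 0.3% parasitemia, 2.5% hematocrit final) are added to compound in RPMI-1640/Albumax II medium, grown 72 h at 37C in low oxygen, then lysed with saponin/Triton-X containing SYBR Green and read by fluorescence.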
In the case of CCOC(=O)C1(Cc2ccc(Cl)cc2)CCN(Cc2ccc(OC)cc2O)CC1, the Potency is reported as active: 0.0891 µM. In the case of O=S(=O)(NC[C@H]1C[C@@H]2CCN1C[C@@H]2CN1CCc2ccccc21)c1ccc(Cl)cc1, the Potency is reported as “inactive”. For CCn1c(=O)c2sccc2n2c(CCC(=O)NCc3ccc(Cl)cc3)nnc12, the Potency was inconclusive: 8.91 µM [inhibitor, partial curve]. With COc1ccc(C(=O)N2CCCC(c3noc(COc4ccccc4)n3)C2)cc1OC (stereo not drawn) the Potency was inconclusive: 17.8 µM [inhibitor, single point]. For O=C1OC[C@@H]2CCN(Cc3ccc(C(F)(F)F)cc3)Cc3ccc(F)cc3N12, the Potency was inconclusive: 5.62 µM [inhibitor, single point]. With Cc1noc(-c2ccco2)c1C(=O)NCCOc1ccccc1 the Potency was inconclusive: 10 µM [inhibitor, single point]. For CC(=O)N1Cc2ccccc2CC2(CCN(CCc3ccccc3)C2)C1 (stereo not drawn), the Potency was inconclusive: 4.47 µM [inhibitor, partial curve, poor fit]. With C[C@@H]1CN(C(=O)c2ccc(C(F)(F)F)cc2)C[C@@]1(O)C1CC1 the Potency was inconclusive: 10 µM [inhibitor, single point]. For O=C(Cc1c(F)cccc1Cl)NCC(=O)N1CCN(c2ccccn2)CC1, the Potency was “inactive”. With CCOc1ccccc1CN1CCC2(CCN(C(=O)Nc3ccc(Cl)cc3)CC2)Oc2ccccc21 the Potency was inconclusive: 12.6 µM [inhibitor, single point]. For COc1ccccc1Cn1c(SCC(=O)C(C)(C)C)nc2ccccc2c1=O, the Potency was inconclusive: 4.47 µM [inhibitor, partial curve, poor fit]. In the case of CCNC(=O)C1CCN(Cc2cc3ccccc3n2Cc2ccc(C)cc2)CC1, the Potency is reported as inconclusive: 3.55 µM [inhibitor, full curve, poor fit]. In the case of CCOC(=O)c1c(C)oc2nc(C)nc(N3CCN(c4ccc(OC)cc4)CC3)c12, the Potency is reported as active: 10 µM. In the case of O=C(Nc1ccc2c(N3CCCC3)ncnc2c1)c1c(F)cccc1F, the Potency is reported as inconclusive: 12.6 µM [inhibitor, single point]. For Cc1ccc(C(=O)Nc2ccc(Br)cc2)cc1S(=O)(=O)NCc1ccccc1, the Potency was inconclusive: 10 µM [inhibitor, single point]. In the case of CC(C)Oc1ccccc1CN1CCC2(CC1)CC(O)CCO2 (stereo not drawn), the Potency is reported as active: 5.01 µM. In the case of CCOc1ccc2nc(NC(=O)c3ccccc3)sc2c1, the Potency is reported as inconclusive: 12.6 µM [inhibitor, partial curve]. In the case of CC(C)(C)NC(=O)N1CCCCCCNC(=O)[C@@H]2C[C@@H](C(=O)N3CCN(c4ccccn4)CC3)C[C@@H]21, the Potency is reported as inconclusive: 17.8 µM [inhibitor, single point].
Potency is the fitted concentration of half-maximal effect; tags give direction and shape of the fitted curve.
